Results taken from article PMC7343241.
No constants are given. Whether binding was seen depends on the method and setting. Binding seen in cells or lysates may run through a third protein. Some entries that bind do so weakly or less than the wild type.

Amino acid sequences for entries named in this document (tags omitted). A change or cut given only in a name is not applied to a line headed by its entry. Chains listed by the source or under a name are the forms on record and can include a tag or linker.
UniProt Q8TDI8: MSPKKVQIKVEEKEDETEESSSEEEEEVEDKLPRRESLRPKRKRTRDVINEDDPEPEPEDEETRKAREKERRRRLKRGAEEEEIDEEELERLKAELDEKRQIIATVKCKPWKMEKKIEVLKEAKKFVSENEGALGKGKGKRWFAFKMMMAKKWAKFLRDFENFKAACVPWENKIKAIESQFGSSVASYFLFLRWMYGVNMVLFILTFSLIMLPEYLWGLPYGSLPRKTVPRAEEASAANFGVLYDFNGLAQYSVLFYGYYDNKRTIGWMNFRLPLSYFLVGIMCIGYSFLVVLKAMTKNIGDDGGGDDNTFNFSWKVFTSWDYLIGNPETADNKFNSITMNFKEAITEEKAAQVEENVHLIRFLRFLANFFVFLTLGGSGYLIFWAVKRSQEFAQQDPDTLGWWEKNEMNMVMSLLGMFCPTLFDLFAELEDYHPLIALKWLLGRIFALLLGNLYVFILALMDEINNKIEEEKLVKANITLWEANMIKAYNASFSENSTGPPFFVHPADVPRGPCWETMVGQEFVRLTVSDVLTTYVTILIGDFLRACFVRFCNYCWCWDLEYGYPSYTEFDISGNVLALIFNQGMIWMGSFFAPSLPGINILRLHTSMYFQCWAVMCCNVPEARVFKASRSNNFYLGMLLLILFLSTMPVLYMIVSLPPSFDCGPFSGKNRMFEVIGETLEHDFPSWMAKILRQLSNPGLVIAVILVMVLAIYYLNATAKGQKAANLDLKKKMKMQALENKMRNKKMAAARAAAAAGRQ
human TMC1 Δ77–86 (FRET, CHO-K1 cells) (Q8TDI8, form named): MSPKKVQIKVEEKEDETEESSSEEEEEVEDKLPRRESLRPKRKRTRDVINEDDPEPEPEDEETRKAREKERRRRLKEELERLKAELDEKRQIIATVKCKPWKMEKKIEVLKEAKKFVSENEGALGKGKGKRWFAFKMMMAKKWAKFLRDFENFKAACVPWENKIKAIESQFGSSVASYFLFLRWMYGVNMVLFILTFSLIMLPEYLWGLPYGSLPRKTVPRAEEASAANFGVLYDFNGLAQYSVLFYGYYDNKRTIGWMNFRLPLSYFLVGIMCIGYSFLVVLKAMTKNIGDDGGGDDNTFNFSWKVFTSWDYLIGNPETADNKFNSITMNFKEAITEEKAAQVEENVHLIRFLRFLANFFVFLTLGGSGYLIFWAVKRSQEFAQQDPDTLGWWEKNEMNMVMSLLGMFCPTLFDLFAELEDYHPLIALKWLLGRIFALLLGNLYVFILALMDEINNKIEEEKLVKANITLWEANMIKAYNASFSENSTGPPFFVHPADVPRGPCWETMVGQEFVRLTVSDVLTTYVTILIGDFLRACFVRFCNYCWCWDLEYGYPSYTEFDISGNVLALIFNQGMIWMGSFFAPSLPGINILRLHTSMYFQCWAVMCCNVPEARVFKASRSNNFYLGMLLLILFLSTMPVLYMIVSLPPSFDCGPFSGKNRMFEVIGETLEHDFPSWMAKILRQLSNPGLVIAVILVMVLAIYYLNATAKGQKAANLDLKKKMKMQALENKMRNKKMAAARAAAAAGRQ
UniProt O75838: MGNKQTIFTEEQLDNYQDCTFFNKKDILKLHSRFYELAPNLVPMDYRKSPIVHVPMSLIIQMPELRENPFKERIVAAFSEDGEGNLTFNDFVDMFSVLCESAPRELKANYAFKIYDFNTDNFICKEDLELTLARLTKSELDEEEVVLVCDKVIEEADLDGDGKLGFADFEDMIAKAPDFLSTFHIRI

How the values were obtained:
Experiment in all cases: FRET or BRET; acceptor photobleaching FRET in transfected, fixed and immunostained CHO-K1 cells; donor EGFP, acceptor Alexa Fluor 555
[1] = biological target: T1, human TMC2 (FRET, CHO-K1 cells) (human) (UniProt Q8TDI7)
T1 sequence: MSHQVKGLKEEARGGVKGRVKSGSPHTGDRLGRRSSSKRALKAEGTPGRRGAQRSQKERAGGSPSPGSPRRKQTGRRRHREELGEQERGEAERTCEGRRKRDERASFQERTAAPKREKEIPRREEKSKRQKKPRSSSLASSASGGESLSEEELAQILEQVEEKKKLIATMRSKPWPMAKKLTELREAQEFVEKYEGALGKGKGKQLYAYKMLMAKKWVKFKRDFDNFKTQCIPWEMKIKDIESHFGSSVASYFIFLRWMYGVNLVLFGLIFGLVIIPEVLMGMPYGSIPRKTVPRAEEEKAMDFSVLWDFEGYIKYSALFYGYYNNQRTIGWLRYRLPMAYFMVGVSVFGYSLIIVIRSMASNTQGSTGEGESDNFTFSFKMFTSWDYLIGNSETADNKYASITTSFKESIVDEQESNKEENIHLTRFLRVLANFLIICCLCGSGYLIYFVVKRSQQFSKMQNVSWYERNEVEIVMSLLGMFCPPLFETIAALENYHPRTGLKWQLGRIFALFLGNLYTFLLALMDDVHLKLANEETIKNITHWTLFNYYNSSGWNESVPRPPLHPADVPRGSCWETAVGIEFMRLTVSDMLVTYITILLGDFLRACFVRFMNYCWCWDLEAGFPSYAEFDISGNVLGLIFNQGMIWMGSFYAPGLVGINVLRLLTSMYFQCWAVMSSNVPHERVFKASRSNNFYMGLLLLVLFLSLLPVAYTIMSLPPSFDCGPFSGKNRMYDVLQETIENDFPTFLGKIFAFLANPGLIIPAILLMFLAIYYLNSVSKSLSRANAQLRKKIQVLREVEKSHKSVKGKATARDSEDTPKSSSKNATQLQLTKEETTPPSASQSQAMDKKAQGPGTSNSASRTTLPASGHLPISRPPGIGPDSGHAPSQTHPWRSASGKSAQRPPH

[2] = biological target: human TMC1 (FRET, CHO-K1 cells) (human) (UniProt Q8TDI8)
[3] = biological target: human TMC1 Δ77–86 (FRET, CHO-K1 cells) (human) (UniProt Q8TDI8)

binding [1]: binds
binding [2]: binds
binding [3]: binds
Substance: human CIB2 (FRET, CHO-K1 cells) (from UniProt O75838 1-187)
